Data set [1] has as its system peritoneal OVCAR-3 tumours. Description: Albendazole treatment of OVCAR-3 peritoneal tumour bearing nude mice (ascites volume, VEGF ELISA). In kind it is in vivo, nude female athymic Balb c nu/nu mice. Conditions: intra-peritoneal, 150 mg/kg x3 weekly for 4 weeks, OVCAR-3 tumour bearing mice.
Data set [2] relates to VEGF mRNA (VEGF121, VEGF165, VEGF189, VEGF206). Description: RT-PCR of VEGF mRNA isoforms in OVCAR-3 cells isolated from ascites fluid of treated mice. The settings on record: intra-peritoneal, 150 mg/kg x3 weekly for 4 weeks; cells from ascites fluid or peritoneal wash. In kind it is in vivo, nude mice. Here is the method: OVCAR-3 cells isolated from ascites fluid of nude mice bearing tumours (as described above) were examined for the expression of mRNA for various VEGF isoforms (VEGF121, VEGF165, VEGF189, VEGF206) by RT-PCR. Cells were separated through centrifugation (5 min at 1500 rpm) and total RNA was isolated from the remaining cell-pellet by using the High Pure RNA Isolation Kit (Roche Diagnostics Corporation) according to the manufacturer's protocol. The RNA concentration was measured in a spectrophotometer at the wavelength of 260 nm using a Quartz Spectrophotometer Cell (BioRad).
Primers for amplification of VEGF were constructed on the basis of the sequences presented in Pellizzaro et. al 2002; VEGF sense: 5′-CACATAGGAGAGATGAGCTTC-3′ (SEQ ID NO:1); VEGF antisense: 5′-CCG CCT CGG CTT GTC ACA T-3′ (SEQ ID NO:2). These primers amplify the following products: 100 bp for VEGF121, 230 bp for VEGF165, 300 bp for VEGF189 and 320 bp for VEGF206. […]
The RT-PCR products were visualized by electrophoresis (25 min at 120V) on 2% agarose gel in 1×TAE buffer containing ethidium bromide. To quantify the size of the products a 100 bp DNA ladder (Invitrogen) was run with the samples.

Data set [3] has as its system VEGF secretion from SKOV-3 cells. In words: In vitro VEGF secretion by SKOV-3 cells (ELISA), with or without MMP-9 stimulation. Conditions: 6 hours.
Data set [4] concerns retinal neovascularisation. Description: Murine model of proliferative retinopathy (ROP), retinal neovascularisation, blood vessel count. In kind it is in vivo, C57BL/6 mice. As for the experimental part:
The ability of albendazole to serve as a potential inhibitor of age-related macular degeneration (AMD) was evaluated in a well-established murine model of retinal neovascularisation, ROP (retinopathy of prematurity), relevant to AMD.
Postnatal day 6 (P6) C57BL/6 mice were exposed to hyperoxic (75% oxygen) for 4 days in Quantum-Air Maxi-Sealed cages (Hereford, UK). P10 mice were returned to normoxia, anaesthetized (17 mg/kg ketamine and 2.5 mg/kg xylazine) and bolus intravitreal injections of volume 2 μl, containing 0.1, 1 or 10 μg albendazole in DMSO; DMSO alone or 1×PBS alone were administered using a 26 gauge beveled needle attached to a micro syringe (SGE International, Melbourne, Australia). Mice remained at room oxygen for a further 7 days then eyes were removed and fixed in 10% formalin/PBS. Serial cross sections (50 microns) were stained with haematoxylin and eosin. Blood vessels from each, group were counted under light microscopy (400×) and expressed as the mean±SEM.
Statistical analysis of the results shown graphically in FIG. 9 was performed using a 2-tailed Student's t-test with unequal variance (Table 1).

`CCCSc1ccc2nc(NC(=O)OC)[nH]c2c1` [albendazole, methyl 5-propylthio-IH-benzimidazole-2-yl carbamate]: in data set [1], the “VEGF levels (ascites fluid and plasma)” value was “dramatic reductions”; the ascites volume result is “dramatic reductions”. Further, the “expression of VEGF mRNA” value in data set [2] is “significant reduction”. The “reduction in VEGF concentration” value in data set [3] (SKOV-3 cells stimulated with MMP-9 (6 ng/ml), 1 μM) came out at 65%. In addition, the “reduction in VEGF concentration” value in data set [3] (SKOV-3 cells, 1.0 μM, absence of MMP-9) stood at 64%. Also, the “VEGF secretion, dose dependence” value in data set [3] (SKOV-3 cells, 0.1, 0.25 and 1.0 μM) is recorded as “dose-dependent reduction”. Further, the “adverse or toxic reaction, retinal morphology (haematoxylin and eosin sections)” value in data set [4] (intravitreal injection in DMSO v DMSO alone) is “no adverse or toxic reaction”. Moreover, the “lowest amount at which inhibition of retinal angiogenesis was observed” value in data set [4] (single intravitreal injection) was found to be 1 µg. The hyperoxia-induced retinal angiogenesis entry in data set [4] (single intravitreal injection, 0.1, 1 or 10 μg in 2 μl, hyperoxia-exposed mice) was “significantly inhibited”.

The values are drawn from patent US8912225B2, “VEGF inhibition” (Pitney Pharmaceuticals Pty Limited, priority 2004, dated 2014).
